Results published in PubChem BioAssay AID504845 (National Center for Advancing Translational Sciences (NCATS), 2011).
The whole screen tested about 390,000 compounds, of which about 150 (0.038%) were called active. Inconclusive results, whose numbers are uncertain, are shown with a selection of clear calls. The call rests on the fitted dose curve; in most records, active means well fitted inhibition curve with a large enough effect; inconclusive means small, poorly fitted or top-dose-only effect; inactive means no such curve, though single readings can be large or run the other way. Where the call is inconclusive, the potency comes from a doubtful curve fit.

target: Regulator of G-protein signaling 4 (Homo sapiens) (UniProt P49798); test: Inhibitors of Regulator of G Protein Signaling (RGS) 4: qHTS; conditions: Transcreener GDP fluorescence polarization, RGS4-accelerated GTP hydrolysis; series mostly up to 114 µM; further: nearly all actives have a fitted effect of over 75% in size
Chain of UniProt P49798 (P49798 whole entry, looked up): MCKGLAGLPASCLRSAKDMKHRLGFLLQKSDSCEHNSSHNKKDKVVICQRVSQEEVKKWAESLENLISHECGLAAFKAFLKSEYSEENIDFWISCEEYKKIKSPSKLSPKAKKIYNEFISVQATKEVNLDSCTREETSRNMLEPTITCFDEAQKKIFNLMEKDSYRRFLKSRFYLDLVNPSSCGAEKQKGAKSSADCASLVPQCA
Procedure, shortened: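 MLSMR compounds (23 nl, pin-transferred) preincubated 10 min at room temperature with a 500nM (2x) first reagent, then RGS4 at 900nM (2x) plus Transcreener GDP mix added; fluorescence polarization (620/688 nm) read before and after 90 min at 30 °C.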
Potency means the concentration at half of the fitted maximal effect; tags describe the fitted curve by direction and shape.

| Structure (SMILES) | Potency |
| --- | --- |
| CC(C)=NNc1nc(-c2ccccc2)cs1 | inconclusive: 50.1 µM [inhibitor, partial curve, poor fit] |
| COC(=O)/C=C1/SC(=Nc2ccc(Cl)c(Cl)c2)NC1=O | inconclusive: 112 µM [inhibitor, partial curve, poor fit] |
| CC(C)=NOc1nc(N(C)C)nc(N2CCOCC2)n1 | inconclusive: 56.2 µM [inhibitor, partial curve, poor fit] |
| COc1ccc(C)cc1NC(=O)C1CCN(S(C)(=O)=O)CC1 | inactive |
| CN1c2ccccc2C(C)(C)C12C=Nc1c(ccc3ccccc13)O2 (centres undefined) | inconclusive: 17.8 µM [inhibitor, full curve, poor fit] |
| S=c1[nH]nc(-c2ccc(Cl)cc2)n1/N=C/C=C/c1ccco1 | inconclusive: 89.1 µM [inhibitor, single point] |
| CCOC(=O)COc1ccc2c(=O)c(-c3ccccc3)coc2c1 | inactive |
| O=Nc1nc2ncccn2c1-c1ccccc1 | inconclusive: 89.1 µM [inhibitor, partial curve, poor fit] |
| CCOc1ccc(S(=O)(=O)N(CC(=O)N/N=C/c2ccc(-c3ccc([N+](=O)[O-])cc3)o2)c2ccccc2)cc1 | inconclusive: 56.2 µM [inhibitor, partial curve, poor fit] |
| CC(=O)c1ccc(NC(=S)NNC(=O)NC2CCCCC2)cc1 | inconclusive: 39.8 µM [inhibitor, partial curve, poor fit] |
| COc1ccc(C2CC(c3ccccc3Br)=NN2c2ccc(S(N)(=O)=O)cc2)cc1 (centres undefined) | inconclusive: 89.1 µM [inhibitor, single point] |
| Cc1ccc(-c2cc(C(=O)N(C)CC(=O)Nc3ccccc3Br)c3ccccc3n2)o1 | inconclusive: 89.1 µM [inhibitor, single point] |
| O=Cc1c(Cl)[nH]c(=O)n1-c1ccccc1 | inconclusive: 79.4 µM [inhibitor, partial curve, poor fit] |
| O=c1oc2c(O)c(O)cc3c(=O)oc4c(O)c(O)cc1c4c23 | inconclusive: 79.4 µM [inhibitor, partial curve, poor fit] |
| O=C(CSc1nc2ccccc2s1)NNC(=S)Nc1ccccc1 | inconclusive: 50.1 µM [inhibitor, partial curve, poor fit] |
| O=C(CSc1nnc(COc2ccccc2)n1-c1ccccc1)c1cccs1 | inconclusive: 44.7 µM [inhibitor, partial curve, poor fit] |
| Oc1cccc(-c2nc(-c3cccs3)c(-c3cccs3)[nH]2)c1 | inactive |
| CC1=C/C(=C(\c2cc(C)c(O)c(Br)c2)c2ccccc2S(=O)(=O)O)C=C(Br)C1=O | inconclusive: 31.6 µM [inhibitor, full curve, poor fit] |
| COc1ccc(-c2nn(-c3ccccc3)cc2/C=C2/SC(=S)N(CCC(=O)O)C2=O)cc1 | inconclusive: 70.8 µM [inhibitor, partial curve, poor fit] |
| O=C(N/N=C/c1ccccc1)c1[nH]c2ccc(Br)cc2c1-c1ccccc1 | inactive |
| O=C(O)CN1C(=O)/C(=C\c2cn(-c3ccccc3)nc2-c2ccccc2)SC1=S | inconclusive: 79.4 µM [inhibitor, partial curve, poor fit] |
| NS(=O)(=O)c1cc2c(cc1Cl)NC(C1CC3C=CC1C3)NS2(=O)=O (centres undefined) | inconclusive: 0.376 µM [inhibitor, full curve, poor fit] |

| Structure (SMILES) | Potency |
| --- | --- |
| Cc1c(C(=O)Nc2cccc(F)c2)cnn1-c1ccccc1 | inconclusive: 79.4 µM [inhibitor, partial curve, poor fit] |
| COc1ccc(-c2ccc(=O)n(CC(=O)Nc3ccccc3C(F)(F)F)n2)cc1 | inconclusive: 89.1 µM [inhibitor, single point] |
| Cc1cccc(NC(=O)[C@H](Cc2ccccc2)NC(=O)[C@@H]2Cc3ccccc3CN2)c1 | inconclusive: 79.4 µM [inhibitor, single point] |
| c1cc(CNc2ccc(N3CCOCC3)cc2)ccn1 | inconclusive: 89.1 µM [inhibitor, single point] |
| Cc1nc(N2CCN(S(=O)(=O)c3ccccc3C#N)CC2)c2c(-c3ccccc3)csc2n1 | inactive |
| Cc1ccc(-n2nc(C)c3c2OC(N)=C(C#N)C3c2ccccc2F)cc1 (centres undefined) | inconclusive: 89.1 µM [inhibitor, single point] |
| COC(=O)c1ccccc1NC(=O)/C=C/c1cc(OC)c(OC)c(OC)c1 | inactive |
| Cc1cc(C)c(S(=O)(=O)Nc2ncn[nH]2)cc1C | inactive |
| COc1ccccc1-n1c(SCC(=O)O)nc2c(sc(=S)n2-c2ccc(Cl)c(C)c2)c1=O | inactive |
| O=C(NCC(=O)N(CC1CCCO1)C1(C(=O)NC2CCCC2)CCCCC1)c1ccccc1 (centres undefined) | inactive |
| Cc1ccc(SC(=O)COc2ccc(C)c(C)c2)cc1 | inconclusive: 79.4 µM [inhibitor, partial curve, poor fit] |
| Cc1cccc(CSc2nc3ccncc3n2CC(=O)Nc2cc(C)cc(C)c2)c1 | inactive |
| Fc1ccc(CN2CCC(Cc3ccccc3)CC2)cc1F | inactive |
| O=C(Cn1cc([N+](=O)[O-])cn1)N1CCc2ccccc21 | inactive |
| CCOC(=O)c1c(C)n(C)c2ccc(OCC(O)Cn3nc(C)cc3C)cc12 (centres undefined) | inactive |
| COCCNC(=S)c1ccc(Br)cc1 | inconclusive: 79.4 µM [inhibitor, partial curve, poor fit] |
| NC(=S)c1ccc[n+]([O-])c1 | inconclusive: 31.6 µM [inhibitor, full curve, poor fit] |
| Cc1cc(=O)[nH]c(SCc2csc(-c3ccccc3)n2)n1 | inactive |
| Cc1cccc(NC(=O)Nc2ccc(C#N)cc2)n1 | inactive |
| Cc1ccc(-c2nn(C)c(=O)c3ccccc23)cc1CNC(=O)NC1CCCCC1 | inactive |
| O=C(Nc1ccc2nc3n(c(=O)c2c1)CCCC3)c1ccc(Cl)nc1 | inconclusive: 70.8 µM [inhibitor, partial curve, poor fit] |
| Cc1ccc(/C=C/C(=O)OCC(=O)N2CC(=O)Nc3ccccc32)o1 | inconclusive: 79.4 µM [inhibitor, partial curve, poor fit] |
